Our source for the survival values is PubChem BioAssay AID463173 (ICCB-Longwood Screening Facility, Harvard Medical School, 2010).

The campaign covered roughly 52,000 compounds. About 1,700 (3.3%) were called active. No stated cut-off is given here; in the data, active means survival mostly below about 52% (no sharp cut-off); inactive means mostly above about 56%. The list shows a part of the results.

In this experiment the test system is Wild type. Kind of experiment: growth inhibition of S. aureus wild type versus tarO mutant, primary screen, teichoic acid synthesis inhibitors, RN4220, OD600 (AID 463173). The settings on record: S. aureus RN4220 wild type/DeltatarO growth, OD600, 18 h, active compounds read low, screened at 18.75 µg/mL (by protocol).
For `CCCCn1cnc2cc(NCc3ccc(OCC)cc3)ccc21`, the survival was active: 4%.

Turning to `CC(C)c1ccc(NC(=O)c2cc(S(=O)(=O)N(C)C3CCCCC3)ccc2F)cc1`, the survival was inactive: 47%.

With `Cc1ccc(S(=O)(=O)N(CCC#N)Cc2ccccc2)cc1`, the survival was inactive: 112%.

Turning to `CCOc1ccc(NC(=O)c2cc(S(=O)(=O)N3CCc4ccccc43)ccc2F)cc1`, the survival is inactive: 79%.

As to `O=C(CCC(=O)c1ccc(F)cc1)Nc1ccc(Cl)cc1`, the survival is inactive: 70%.

Regarding `COC(=O)c1sc2nc(C)cc(C)c2c1N`, the survival is inactive: 103%.

In the case of `CCOC(=O)c1cc2c(ccn2C)n1Cc1ccc(OC(F)(F)F)cc1`, the survival was inactive: 52%.

Regarding `CCOc1ccc(CNC(=O)C2CCCCN2S(=O)(=O)c2ccc(F)cc2)cc1OC` (stereo not drawn), the survival was inactive: 82%.

As for `CCn1cc(S(=O)(=O)c2cccc(C)c2)c(=O)c2cc(F)c(N3CCCC(C)C3)cc21` (stereo not drawn), the survival is inactive: 66%.

As to `O=C(c1ccc2c(c1)N(Cc1ccccc1F)C(=O)c1ccccc1S2(=O)=O)N1CCN(c2ccccn2)CC1`, the survival was inactive: 87%.

Take `COc1ccc(-c2nc3c(c(SC)n2)Cc2c(CO)cnc(C)c2O3)cc1`: the survival was inactive: 84%.

For the compound `CCn1c(=O)c2cc(C(=O)NCCCN3CCN(C)CC3)sc2c2ccccc21`, the survival was inactive: 124%.

As to `Cc1ccccc1NC(=O)c1c(C)oc2ccc(O)c(CN3CCOCC3)c12`, the survival was inactive: 88%.

Consider `O=C(CSc1n[nH]c(-c2ccccc2Cl)n1)NCc1ccc(F)cc1`, for which the survival is active: -6%.

With `Cc1ccc(Nc2c(-c3ccc(Br)o3)nc3ccccn23)cc1`, the survival was inactive: 118%.

With `COc1ccc(S(=O)(=O)NCc2nc3nc(C)cc(C)n3n2)cc1`, the survival is inactive: 79%.

`NC(=O)c1c(NC(=O)CS(=O)(=O)c2ccc(Cl)cc2)sc2c1CCCCC2`: the survival is inactive: 72%.

Take `CCC(=O)Oc1c(Sc2ccc(Cl)cc2)c(C)nn1-c1ccccc1`: the survival was inactive: 25%.

As to `Cc1ccc(Cl)cc1N1CCN(C(=O)Cn2ncc3c4ccccc4n(C)c3c2=O)CC1`, the survival is inactive: 67%.

For `CCOc1ccc(NC(=O)CSC2=Nc3ccccc3C3=NC(CCC(=O)NCc4ccco4)C(=O)N23)cc1` (stereo not drawn), the survival is inactive: 93%.

Consider `O=C(NCCCN1CCN(c2cccc(Cl)c2)CC1)c1sc2ncccc2c1-n1cccc1`, for which the survival is inactive: 79%.

As to `Cc1ccc(-c2nc(CS(=O)(=O)CC(=O)Nc3ccc(Br)cc3F)c(C)o2)cc1`, the survival is inactive: 91%.

With `Cc1ccc(-c2csc(-c3cc4c([nH]c3=O)CC(c3ccccc3)CC4=O)n2)cc1` (stereo not drawn), the survival is inactive: 67%.

Take `Cc1cc(Cl)ccc1NS(=O)(=O)c1c(C(=O)N2CCC(C)CC2)c(C)n(C)c1C`: the survival is active: 14%.

Take `O=C(Cn1c(-c2ccccc2)noc1=O)NCc1ccccc1`: the survival is inactive: 117%.

With `CC1CCCN(c2nc3c(-c4ccc(Cl)cc4)nnn3c3ccccc23)C1` (stereo not drawn), the survival is inactive: 83%.

For `CCN(CC)S(=O)(=O)c1ccc2c(c1)N(CC(=O)NCc1ccccc1)C(=O)C1CCCCN21` (stereo not drawn), the survival was inactive: 102%.

For `Cc1cc2c(cc1S(=O)(=O)Nc1ccc(OC(F)(F)F)cc1)OCC(=O)N2`, the survival was inactive: 72%.

As to `COc1ccc2oc(=O)c(-c3nnc(-c4ccc(C)cc4)o3)cc2c1`, the survival is inactive: 135%.

Consider `Cc1ccc2ncc(C(=O)c3ccc(C)c(C)c3)c(S(=O)(=O)c3ccc(F)cc3)c2c1`, for which the survival is inactive: 96%.

On to `CCOc1ccc(CC(=O)NCCc2sc3nc(-c4ccc(F)cc4)nn3c2C)cc1`, for which the survival was inactive: 71%.

Take `O=C(NCCc1csc(-c2cccnc2)n1)c1cccc(Cl)c1`: the survival was inactive: 53%.

`Cc1cc(SCC(N)=O)nc2ccccc12`: the survival was inactive: 110%.

As for `CC(C)N(Cc1nc(-c2ccc(Cl)cc2)no1)C(=O)c1ccc(C(C)(C)C)cc1`, the survival was active: 0%.

Turning to `Cc1ccccc1Cn1c(SCc2ccc(C(=O)NC3CCCCC3)cc2)nc2ccncc21`, the survival was inactive: 92%.

On to `COc1ccc(C)cc1C(=O)CCC(=O)O`, for which the survival was inactive: 115%.

With `Cc1nc(SCc2cccc(Cl)c2)nc2c1CCCC2`, the survival is active: -8%.

In the case of `CC(=O)N1c2ccc(S(=O)(=O)N3CCCCCC3)cc2CC1C(=O)NCc1cccc(C)c1` (stereo not drawn), the survival is inactive: 92%.

For the compound `COc1cc(NC(=O)Cn2c(=O)cc(C)c3c(C)nn(-c4ccc(C)cc4)c32)cc(OC)c1`, the survival is inactive: 113%.

Consider `CCOc1ccc(-c2cc3nc(C4CCN(C(=O)OC(C)(C)C)CC4)c(C(=O)Nc4cccc(CC)c4)cn3n2)cc1`, for which the survival was inactive: 72%.

Turning to `Fc1ccc(NCc2ccccc2-c2nnc(-c3ccccc3Cl)o2)cc1`, the survival was inactive: 89%.

Take `Cc1ccc(CNc2nnc(C)c3nnn(Cc4ccc(F)cc4)c23)cc1`: the survival was inactive: 96%.

For the compound `CC(=O)Nc1ccc(I)cc1C(=O)O`, the survival is inactive: 109%.

`CC1=C(c2ccc(Cl)cc2)S(=O)(=O)N=C1N1CCN(c2cccc(C)c2C)CC1`: the survival is inactive: 91%.

Consider `Cc1cccc(NC(=O)CSc2nc3ccc(NC(=O)c4ccccc4)cc3s2)c1`, for which the survival was inactive: 84%.

With `COc1cccc(CN2C(=O)c3ccccc3Sc3ccc(C(=O)OCc4ccco4)cc32)c1`, the survival is inactive: 72%.

With `Cc1ccc(-n2ccn(CC(=O)NCCc3ccccc3)c(=O)c2=O)cc1C`, the survival was inactive: 90%.

With `CCCCOc1ccc(C(=O)N(Cc2ccc(N(C)C)cc2)Cc2ccco2)cc1`, the survival is inactive: 80%.

On to `CC(C)(C)c1ccc(-c2nc(NC(=O)CSc3ncnc4sc5c(c34)CCCC5)ns2)cc1`, for which the survival was inactive: 73%.

On to `CCSc1nc2n(n1)C(c1ccc(Cl)cc1Cl)C(C(=O)Nc1ccccc1C)=C(C)N2` (stereo not drawn), for which the survival is inactive: 76%.

Consider `Cc1ccc(-n2ncc3c(NCc4ccccc4)ncnc32)cc1Cl`, for which the survival was active: -6%.

`COc1ccc(N2CC(NC(=O)/C=C\c3ccc4c(c3)OCO4)CC2=O)cc1OC` (stereo not drawn): the survival was inactive: 80%.

In the case of `CCc1ccc(NC(=O)CSc2nccn2-c2ccc(F)cc2)cc1`, the survival was inactive: 136%.

Turning to `O=C(c1ccco1)N(Cc1cccnc1)c1nc2c(F)cc(F)cc2s1`, the survival was inactive: 71%.

`CCc1ccccc1NC(=O)Cn1cc(S(=O)(=O)N2CCCC2)c(S(=O)(=O)N2CCCC2)c1`: the survival was inactive: 68%.

Take `Cc1cccc(-n2c(SCC(N)=O)nc3ccccc3c2=O)c1`: the survival is inactive: 99%.

With `Cc1ccccc1CNC(=O)c1ccc2nc(SCc3ccc(F)cc3)n(C)c2c1`, the survival is inactive: 59%.

On to `CCOCCCNC(=O)C(c1ccccc1)N(Cc1ccc2c(c1)OCO2)C(=O)c1ccc(NC(C)=O)cc1` (stereo not drawn), for which the survival was inactive: 70%.
